Consider 84 variants from the RNAGym collection of RNA variant scans (doi:10.1073/pnas.2313332121).

Variants at the floor of the assay are shown more often than the library holds them. A value given as a limit tells only on which side of the number the result lay.

B1: TPR 5TU (parent)
chain: GGAUCUUCUCGAUCUAACAAAAAAGACAAAUCUGCCACAAAGCUUGAGAGCAUCUUCGGAUGCAGAGGCGGCAGCCUUCGGUGGCGCGAUAGCGCCAACGUUCUCAACUAUGACACGCAAAACGCGUGCUCCGUUGAAUGGAGUUUAUCAUG

Variants of B1 are the subject of the data set. The data set can be described thus: polymerase ribozyme fitness, log enrichment relative to wild type (log ratio); higher = more active; in vitro selection for triplet polymerase activity. The gist of the method: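 For each subunit of a heterodimeric triplet polymerase ribozyme, a mutant library was built by PCR and transcribed, then taken through a single in vitro selection round in triplicate. Selection involved annealing to a biotinylated primer, the partner subunit and triplets, incubation frozen at −7 °C, gel excision of extended constructs, capture on streptavidin beads and RT-PCR. Genotypes were retained after Illumina sequencing of inputs and outputs only with ≥10 input reads and ≥1 read in each output. Fitness is defined as the logarithm of a genotype's enrichment relative to wild-type enrichment, using inverse-variance-weighted averages across replicates, with the logarithm taken to base 2.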
For G11A U61G C95U A97G C105A A106U, the “polymerase ribozyme fitness (log ratio)” value is at most -4.2. Turning to C10A U77A C96G A147C, the “polymerase ribozyme fitness (log ratio)” value was at most -4.2. The value for C10G U55A C85G was at most -4.2; that for C10U C35G G65C G81U C93U C96U C103U was at most -4.2; that for G11A A30C C95G A119U C132U was at most -4.2. The value for C10G C38U C85U U90A U135C was at most -4.2; that for C10G U61A G71A C96U was at most -4.2; that for C10U C27U U53A G59A C108G G133C G136U was at most -4.2. The value for G11A U45A A89C A91G G128A U148A was at most -4.2; that for C10G G68U C85A was at most -4.2; that for G11C A19U A23G C85U G126A U135C G136C G152U was at most -4.2. As to C10G A39G A41C G94C G117C, the “polymerase ribozyme fitness (log ratio)” value was at most -4.2. To G11A A20C A39C G59C C95U belongs at most -4.2. Turning to G11A C54A U56G C57A G71U A91G C95U, the “polymerase ribozyme fitness (log ratio)” value is at most -4.2. Regarding C10G C57A A73G U78A C85U U144C, the “polymerase ribozyme fitness (log ratio)” value was at most -4.2.

Regarding G11C A26G G58A G124C, the “polymerase ribozyme fitness (log ratio)” value is at most -4.2. To C10U G58U A66C U77G A91U C96G A97U belongs at most -4.2; to C10U C35U G92A C105U A138C U144C, at most -4.2; to C10U A22U A60G A73G C75A G86A A120U U135G G141C, at most -4.2. Turning to C10G A37C C87U, the “polymerase ribozyme fitness (log ratio)” value was at most -4.2. Regarding C10G A22U A41U G42A C54A A60G C93A, the “polymerase ribozyme fitness (log ratio)” value is at most -4.2. Consider C10U G59A U90G C95G, for which the “polymerase ribozyme fitness (log ratio)” value was at most -4.2. To C10G A16U C18G C51G G70A G86A C105A belongs at most -4.2; to G11A C32A C35U G133C G141U, at most -4.2; to G11A A19C A64U, at most -4.2. With C10U A41C G81C G117C A142C, the “polymerase ribozyme fitness (log ratio)” value is at most -4.2.

C10U C79U C93A A98G C103U: the “polymerase ribozyme fitness (log ratio)” value was at most -4.2.

Consider G11C C27G C57G A60G A64C U82A C114U, for which the “polymerase ribozyme fitness (log ratio)” value was at most -4.2. As for C10U C76U C85A A113C C114A, the “polymerase ribozyme fitness (log ratio)” value was at most -4.2. G11C A22U C27A C32G G58A G94C A115C U134A U145C: the “polymerase ribozyme fitness (log ratio)” value is at most -4.2. Consider C10U U55A G68A C76A A89C C93U C95A C108A A115U G117A U130G, for which the “polymerase ribozyme fitness (log ratio)” value is at most -4.2. For C10G A21C A26U A29U U31A C35U C95U, the “polymerase ribozyme fitness (log ratio)” value was at most -4.2.

Consider C10G A19G G83U G94A C95A A97C A121C G143U U146G, for which the “polymerase ribozyme fitness (log ratio)” value was at most -4.2.

Take C10G C85A A89U C99G: the “polymerase ribozyme fitness (log ratio)” value was at most -4.2. With C10G U15G U53A G62A C93U, the “polymerase ribozyme fitness (log ratio)” value was at most -4.2. To C10U U15A C36A G68A U90G A142U belongs at most -4.2; to C10U A21U G48U G50U C95U G126A U135C A138C, at most -4.2. Consider C10G G83C C85G G92U U134A, for which the “polymerase ribozyme fitness (log ratio)” value is at most -4.2.

For C10G G11U A37C U55G C95G U139G, the “polymerase ribozyme fitness (log ratio)” value was at most -4.2. The value for C10G C27G C35G A49C G70C C79A C95G was at most -4.2; that for G11A C18G A21G C87U A98G was at most -4.2; that for C10U A23G A30U C93U A98U C99A C116U was at most -4.2. Turning to G11A C54U A66G C96A G136A, the “polymerase ribozyme fitness (log ratio)” value was at most -4.2. To G11A U31G C96G G140C belongs at most -4.2; to C10U U44A G58A G88A U148C, at most -4.2. In the case of G11C A12C C35G C36A G92U C96U U102C G124U, the “polymerase ribozyme fitness (log ratio)” value is at most -4.2. Turning to C10G U56A U77C A106G A120U G140U G143A, the “polymerase ribozyme fitness (log ratio)” value was at most -4.2.

As for C10G A40G U45A G84A U102G, the “polymerase ribozyme fitness (log ratio)” value was at most -4.2. For the variant C10G A40U A64C C72A C87A U101G G124A, the “polymerase ribozyme fitness (log ratio)” value was at most -4.2. With C10G U13G C85A C93U A110G G128U C132U, the “polymerase ribozyme fitness (log ratio)” value was at most -4.2. For C10U A22G A30G U44A A64C C75U C95U C96A G133U A138C A142C, the “polymerase ribozyme fitness (log ratio)” value was at most -4.2. To C10G C32G G42A G58C C79U belongs at most -4.2. To C10G A20U C54U A91G G100C U145G A150G belongs at most -4.2. The value for G11A C87A was at most -4.2; that for C10G A30C A52G G65A G70U C95U U145G was at most -4.2; that for C10U A40U U45A A60C U78G C85A A91G U148A was at most -4.2.

For C10G G59A G65C U146G A150C U151A, the “polymerase ribozyme fitness (log ratio)” value was at most -4.2.

For C10G G70U U82A C93U A110G U135A, the “polymerase ribozyme fitness (log ratio)” value is at most -4.2.

With G11C C54G G59C U61A G94A A106U C125G A142C, the “polymerase ribozyme fitness (log ratio)” value is at most -4.2. C10A U45G C85U: the “polymerase ribozyme fitness (log ratio)” value is at most -4.2. The value for G11A A39U A47G G81C G86C was at most -4.2; that for C10G A19U A40U G59A A73G G84U A89U C108A A115U A142C U145C was at most -4.2. The value for G11C A23U U53A G81U C87A G140U was at most -4.2. The value for G11A A21C G88A C105U was at most -4.2; that for G11A C35U U55G G84A C85A U102C was at most -4.2. As to G11C C87A C108A A115G A138C, the “polymerase ribozyme fitness (log ratio)” value was at most -4.2. The value for C10G U45G C57U G70C C76A A91G C93A was at most -4.2. The value for G11C A17C A41G G46A G62A C103A U135G was at most -4.2.

As to C10G U13G A47C C93U A106U A107G, the “polymerase ribozyme fitness (log ratio)” value was at most -4.2.

Consider C10U U13C U33A A49G G65A G84U G92A A115C C149A, for which the “polymerase ribozyme fitness (log ratio)” value is at most -4.2. Take G11A A30G A41U U77G G94U: the “polymerase ribozyme fitness (log ratio)” value was at most -4.2. C10G G94A C116G A121U G124U G152A: the “polymerase ribozyme fitness (log ratio)” value was at most -4.2. As for C10G A16C A39C G74A G88U C129A U134C, the “polymerase ribozyme fitness (log ratio)” value was at most -4.2. To C10G U55A G68A G84U belongs at most -4.2; to G11C A24U A119C, at most -4.2; to C10U G68A A91G C108A, at most -4.2. With C10U C14G A17G U55A G88C U101G A120C G136A, the “polymerase ribozyme fitness (log ratio)” value was at most -4.2. Consider C10U A29C C35G A37U A66G A98G A120C A138C, for which the “polymerase ribozyme fitness (log ratio)” value was at most -4.2. The value for C10U G84A G88U A113G G128A C131G G136C was at most -4.2; that for C10U A22U A40C G59A G86A A89U was at most -4.2. To G11C A19G G50C G59U G94A C96U C131A belongs at most -4.2. The value for G11A G50C G58C A73U C76U A138U was at most -4.2. In the case of C10U A12G A22G A30U G50A G65A U82A G84U C87A C114G, the “polymerase ribozyme fitness (log ratio)” value was at most -4.2. To G11A U55G C63U G74A U77A C93G A115U G124A G141U belongs at most -4.2.
